Measurements taken from the supplement of paper PMC3334620.
In all, about 33,000 sequences were measured (“E-score (-0.5 to 0.5)”: median about -0.032, highest 2% from about 0.36 on). This is one part of the list.

What follows are sequences tested against T1, Sko1 (UniProt Q02100) (assay: PBM E-score (8-mer binding enrichment) (E-score (-0.5 to 0.5)); higher = stronger / more preferred TF binding; most listed sequences are background and not binding sites). Conditions: protein concentration: 200 nM; construct: GST-full length.
T1 sequence: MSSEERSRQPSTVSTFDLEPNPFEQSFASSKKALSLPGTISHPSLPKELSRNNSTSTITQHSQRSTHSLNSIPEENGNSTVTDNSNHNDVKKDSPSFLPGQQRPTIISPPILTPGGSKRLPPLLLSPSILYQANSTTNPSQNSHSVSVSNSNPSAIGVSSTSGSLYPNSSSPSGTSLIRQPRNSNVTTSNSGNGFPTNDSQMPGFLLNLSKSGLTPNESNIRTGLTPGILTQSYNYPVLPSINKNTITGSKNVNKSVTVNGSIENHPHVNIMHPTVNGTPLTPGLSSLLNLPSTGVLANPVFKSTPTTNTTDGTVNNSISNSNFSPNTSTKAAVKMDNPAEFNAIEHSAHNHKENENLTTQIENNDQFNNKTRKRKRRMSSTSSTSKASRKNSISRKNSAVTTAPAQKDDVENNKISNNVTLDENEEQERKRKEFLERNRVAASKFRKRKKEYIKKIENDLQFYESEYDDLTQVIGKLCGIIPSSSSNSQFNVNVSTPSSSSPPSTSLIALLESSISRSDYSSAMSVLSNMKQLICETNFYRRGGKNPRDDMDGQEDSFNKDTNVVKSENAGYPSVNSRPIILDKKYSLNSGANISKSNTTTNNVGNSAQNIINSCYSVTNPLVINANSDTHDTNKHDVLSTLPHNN
Method in brief: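 Detection of bound protein used fluorescent anti-GST, with scans normalised by masliner. The proteins were GST-tagged yeast transcription factors applied at about 100-200 nM to universal all-10-mer Agilent arrays made double-stranded by primer extension. Each ungapped eight-base word, pooled with its reverse complement, was scored with an E-score from the Universal PBM Analysis Suite.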

Row | Sequence | PBM E-score
1 | AAACAAGG | -0.131
2 | AATACCCA | -0.178
3 | ATCCATTC | 0.124
4 | AAAGCGAA | -0.0627
5 | CATTGGGG | -0.136
6 | CAGGGTTC | -0.213
7 | AGTCTAGG | -0.16
8 | AGGGGCAA | -0.206
9 | AAGTGATG | 0.184
10 | AGTGTTGA | 0.0585
11 | GCACCGAA | -0.0742
12 | AATTCGAG | -0.122
13 | ATCCTTGG | -0.0708
14 | AGAAAAAA | 0.15
15 | CCATTTAA | 0.191
16 | CACTCAGC | -0.0479
17 | AACTCGTC | 0.194
18 | ACTTCTCG | 0.0277
19 | AAGACTGT | -0.142
20 | GGATTCGA | -0.167
21 | AAGTTGAG | 0.0441
22 | CAGGTCGA | -0.152
23 | ACGAAACC | 0.288
24 | CGCGATGC | -0.196
25 | CATATCGG | -0.166

Row | Sequence | PBM E-score
26 | ACAGGTGA | -0.0861
27 | AGGGTCCG | -0.311
28 | AGTTCCCA | -0.0417
29 | CTTCTCCA | -0.271
30 | CAAATATA | 0.166
31 | CAGGACGC | 0.0652
32 | TGTGTCAA | 0.0936
33 | CAGGGGGC | -0.381
34 | AGCGGTAG | -0.173
35 | GCCCGCGA | -0.222
36 | AAAATCGG | -0.0745
37 | ACCTGTAT | -0.105
38 | GTCCTGGA | -0.105
39 | CCGCGTTC | -0.0912
40 | GACGATGA | 0.199
41 | GACGTTTA | 0.386
42 | CTGTCTAC | 0.175
43 | GAAAAATC | -0.0547
44 | ACTGGCCG | -0.336
45 | AGGATGTA | 0.0495
46 | CGTAGAAC | -0.0169
47 | ATAGAAGC | 0.0681
48 | ACAATCTC | 0.00919
49 | AACTCACC | -0.0504
50 | TAAGCAAA | 0.168

Row | Sequence | PBM E-score
51 | CAGTACCG | -0.18
52 | GTTTGAGA | -0.0431
53 | GCAACGGA | 0.0479
54 | GAGCAGCC | -0.199
55 | GTATGTCA | 0.398
56 | AGCCGTAA | 0.134
57 | CCTGCTAA | -0.252
58 | GCGCACCA | 0.0867
59 | TCTAAACA | 0.0278
60 | ACAGCCAG | -0.0717
61 | ATTCATCA | 0.278
62 | ACTCTTCC | -0.0697
63 | AACACTGG | -0.0525
64 | CGATGGAA | 0.106
65 | ACGCGGCC | -0.2
66 | CGGAAGGC | -0.266
67 | ATAAGAGC | -0.0368
68 | GAAGACCA | -0.193
69 | GAGTAGAA | 0.03
70 | AGGTAGTA | -0.0365
71 | ACGCAGCG | 0.211
72 | CAGCCCGA | -0.19
73 | ATGCGACG | 0.186
74 | AGTCATTC | 0.135
75 | AGGAACAC | 0.0921

Row | Sequence | PBM E-score
76 | CTTACGAA | 0.275
77 | GAGGGCAA | -0.147
78 | TACTGGCA | -0.063
79 | AACCTACA | 0.0865
80 | CACCTAGA | -0.0625
81 | TACTCGGA | 0.0485
82 | AAGAGGAT | -0.176
83 | ACAAGATC | -0.106
84 | CTATGCAG | -0.0536
85 | AAAATTGT | 0.112
86 | GACGTGCC | 0.266
87 | TCCCTGCA | -0.151
88 | ATTAACGG | -0.118
89 | GTTGAGAA | -0.0386
90 | AGGGGGTC | -0.404
91 | ATGGCCTA | -0.0612
92 | GACCAATC | -0.0473
93 | GTACTGCA | -0.169
94 | ACTGCTCT | -0.0895
95 | GTGTCAGA | -0.06
96 | CCCGGGAG | -0.232
97 | AATAGTGC | -0.0797
98 | CATAAGTC | 0.034
99 | CTACATCC | -0.0667
100 | CAGTACAC | 0.0502

Row | Sequence | PBM E-score
101 | CCCCAACC | -0.062
102 | GGACGTCC | -0.151
103 | GAAATGCC | -0.136
104 | AGAAAGAC | -0.0145
105 | CAGAACAG | -0.0484
106 | GATTTCGA | 0.0339
107 | AGCGGTGA | -0.0427
108 | ACTAAGAG | -0.113
109 | AGTAATAA | 0.232
110 | CGCATGCA | 0.156
111 | AGGCCGTA | -0.00353
112 | AGTCACGA | 0.103
113 | CCGGAGGC | -0.309
114 | CTCTCACA | -0.0188
115 | CGTTACTA | 0.127
116 | CTGTGAGA | -0.0611
117 | AAGCGCTC | -0.0872
118 | GTGTGCCA | 0.164
119 | AAGTCAAT | -0.00377
120 | ATTATCCG | 0.0708
121 | ATTCCTAC | 0.0535
122 | AAGACCGA | -0.0514
123 | AGCGCTAT | 0.144
124 | GCAGTTCA | -0.0145
125 | CGTTCTGA | 0.174

Row | Sequence | PBM E-score
126 | CCGGGTTA | -0.209
127 | AGAACTCG | 0.0952
128 | CAGGTTTC | -0.0189
129 | CTCATTCC | -0.0322
130 | ACATACCA | -0.0223
131 | GGTCGGGA | -0.22
132 | CCGGATCG | -0.225
133 | ACGTAACT | 0.459
134 | AACGTTAT | 0.368
135 | ATTGCGGG | -0.0411
136 | AGTATTTG | 0.00607
137 | GATGACGC | 0.473
138 | AGAGCAAC | -0.094
139 | GAAAGACA | 0.143
140 | CGCATGGC | -0.0485
141 | CGGCAATC | -0.174
142 | TAGTAACA | 0.183
143 | AAATTGTA | 0.0214
144 | GCAGCTTA | -0.0732
145 | ACGAGTTA | 0.183
146 | CCCCAAGA | -0.0628
147 | CAGCCGTC | -0.15
148 | AATGCCTC | -0.0545
149 | ATTGTATG | -0.0348
150 | CGCTATTC | 0.0711

Row | Sequence | PBM E-score
151 | ATACCGCC | -0.228
152 | ATCTGGCC | -0.0936
153 | GTCTTGTA | -0.0618
154 | TAATTGCA | 0.158
155 | GTCTAGAC | -0.196
156 | CCTCCCAC | -0.168
157 | TAATGGTA | 0.0858
158 | GTAAGTAC | 0.189
159 | CTTATGCA | 0.114
160 | ACCAAATC | 0.00737
161 | AGATTACC | 0.108
162 | CTTCGGCA | -0.161
163 | AGGTTCTC | -0.23
164 | GCCTGCTA | -0.246
165 | AGTGAGGC | 0.0161
166 | CCACCCAC | -0.106
167 | AGCACGAA | 0.169
168 | TCAAACGA | 0.102
169 | GACATATA | 0.198
170 | TACTGCGA | 0.0205
171 | CACGGACA | -0.119
172 | ATTCATTC | 0.216
